Test results reported in US12281149B2, “Modulators of G-protein coupled receptors” (priority 2021, dated 2025).
At least one compound was matched to its structure with a doubt left. *1 amine or outer side, *2 acyl side, *3 side chain or, on linkers, in order; H or OH if unused. Where a SMILES comes first, the peptide text is derived from it. Side-chain parts run from the residue outwards. [ ]: non-standard residue; d: D form. The star is where a group is joined. C20 diacid = O=C(O)CCCCCCCCCCCCCCCCCCC(=O)*; γGlu = O=C(O)[C@H](CCC(=O)[*:2])N[*:1]; NH(3-MeOPh) = COc1cccc(N*)c1; NH(2-ClPh) = Clc1ccccc1N*; AEEA = NCCOCCOCC(=O)O; Aib = CC(C)(N)C(=O)O; CO = O=C([*:1])[*:2]; GABA = NCCCC(=O)O

Key:
Assay type in all cases: cell-based
[1] = target: T1, GLP-1 receptor (Homo sapiens, UniProt P43220); assay: HitHunter cAMP assay, GLP-1 receptor
T1 sequence (P43220 24-463): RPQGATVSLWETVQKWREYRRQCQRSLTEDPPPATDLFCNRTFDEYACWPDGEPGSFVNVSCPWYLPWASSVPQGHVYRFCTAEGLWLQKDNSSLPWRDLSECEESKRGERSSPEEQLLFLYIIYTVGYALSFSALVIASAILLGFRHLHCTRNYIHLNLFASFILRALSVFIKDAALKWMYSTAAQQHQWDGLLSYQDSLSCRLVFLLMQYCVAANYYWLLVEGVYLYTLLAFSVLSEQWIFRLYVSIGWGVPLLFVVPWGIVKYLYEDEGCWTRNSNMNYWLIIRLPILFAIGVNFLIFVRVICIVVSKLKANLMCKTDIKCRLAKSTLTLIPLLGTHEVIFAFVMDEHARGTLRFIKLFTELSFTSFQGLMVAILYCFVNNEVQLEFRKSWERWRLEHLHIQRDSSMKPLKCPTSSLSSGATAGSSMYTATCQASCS

[2] = target: T1, GLP-1 receptor; assay: PathHunter β-arrestin assay, GLP-1 receptor; design: host or cells: PathHunter CHO-K1 GLP1R β-Arrestin Cell Line
[3] = target: T2, GIP receptor (Homo sapiens, UniProt P48546); assay: HitHunter cAMP assay, GIP receptor
T2 sequence (P48546 22-466): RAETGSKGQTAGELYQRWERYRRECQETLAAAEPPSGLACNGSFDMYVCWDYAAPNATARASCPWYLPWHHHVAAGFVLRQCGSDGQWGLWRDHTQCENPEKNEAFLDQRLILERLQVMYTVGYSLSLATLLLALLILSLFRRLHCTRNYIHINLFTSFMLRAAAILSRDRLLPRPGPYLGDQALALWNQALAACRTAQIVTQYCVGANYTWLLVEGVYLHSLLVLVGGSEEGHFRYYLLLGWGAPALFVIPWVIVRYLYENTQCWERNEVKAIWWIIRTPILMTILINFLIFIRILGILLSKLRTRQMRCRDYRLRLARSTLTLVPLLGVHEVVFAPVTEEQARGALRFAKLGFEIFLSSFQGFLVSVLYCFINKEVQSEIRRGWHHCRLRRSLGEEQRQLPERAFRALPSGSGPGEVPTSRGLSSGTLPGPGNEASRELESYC

[4] = target: T2, GIP receptor; assay: PathHunter β-arrestin assay, GIP receptor; design: host or cells: PathHunter CHO-K1 GIPR β-Arrestin Cell Line

Work on `CC[C@H](C)[C@H](NC(=O)[C@H](CC(C)C)NC(=O)[C@H](Cc1c[nH]c2ccccc12)NC(=O)[C@H](CCC(N)=O)NC(=O)[C@@H](NC(=O)[C@H](Cc1ccccc1)NC(=O)[C@H](C)NC(=O)[C@H](CCCCNC(=O)COCCOCCNC(=O)COCCOCCNC(=O)CC[C@H](NC(=O)CCCCCCCCCCCCCCCCCCC(=O)O)C(=O)O)NC(=O)[C@H](CCC(N)=O)NC(=O)[C@H](C)NC(=O)[C@@H](NC(=O)[C@H](CCCCN)NC(=O)[C@H](CC(=O)O)NC(=O)[C@H](CC(C)C)NC(=O)C(C)(C)NC(=O)[C@@H](NC(=O)[C@H](CO)NC(=O)[C@H](Cc1ccc(O)cc1)NC(=O)[C@H](CC(=O)O)NC(=O)[C@H](CO)NC(=O)[C@@H](NC(=O)[C@H](Cc1ccccc1)NC(=O)[C@@H](NC(=O)CNC(=O)[C@H](CCC(=O)O)NC(=O)CCCNC(=O)CNC(=O)Nc1ccccc1Cl)[C@@H](C)O)[C@@H](C)O)[C@@H](C)CC)[C@@H](C)CC)C(C)C)C(=O)N[C@@H](C)C(=O)NCC(=O)NCC(=O)N1CCC[C@H]1C(=O)N[C@@H](CO)C(=O)N[C@@H](CO)C(=O)NCC(=O)N[C@@H](C)C(=O)N1CCC[C@H]1C(=O)N1CCC[C@H]1C(=O)N1CCC[C@H]1C(=O)N[C@@H](CO)C(N)=O` [Compound 259] ({NH(2-ClPh)-CO}-G[GABA]EGTFTSDYSI[Aib]LDKIAQK([AEEA-AEEA-γGlu-C20 diacid])AFVQWLIAGGPSSGAPPPS-NH2; C-terminus assumed) yielded an EC50 ([1]; read-out: EC50 GLP-1R; CHO cells stably expressing human GLP-1 receptor, cAMP accumulation, 30 min) of 1 to 10 nM, an EC50 ([2]; read-out: GLP-1R β Arrestin EC50; β-arrestin-2 recruitment, PathHunter CHO-K1 GLP1R β-Arrestin Cell Line, 90 min at 37° C.; normalized to GLP-1) greater than 1000 nM and an EC50 ([3]; read-out: EC50 GIP-1R; CHO cells stably expressing GIP receptor, cAMP accumulation, 30 min) of 1 to 10 nM. The EC50 ([4]; read-out: GIPR β Arrestin EC50; β-arrestin-2 recruitment, PathHunter CHO-K1 GIPR β-Arrestin Cell Line, 90 min at 37° C.; normalized to GIP) was greater than 1000 nM.

Compound `CC[C@H](C)[C@H](NC(=O)[C@H](CC(C)C)NC(=O)[C@H](Cc1c[nH]c2ccccc12)NC(=O)[C@H](CCC(N)=O)NC(=O)[C@@H](NC(=O)[C@H](Cc1ccccc1)NC(=O)[C@H](C)NC(=O)[C@H](CCCCNC(=O)COCCOCCNC(=O)COCCOCCNC(=O)CC[C@H](NC(=O)CCCCCCCCCCCCCCCCCCC(=O)O)C(=O)O)NC(=O)[C@H](CCC(N)=O)NC(=O)[C@H](C)NC(=O)[C@@H](NC(=O)[C@H](CCCCN)NC(=O)[C@H](CC(=O)O)NC(=O)[C@H](CC(C)C)NC(=O)C(C)(C)NC(=O)[C@@H](NC(=O)[C@H](CO)NC(=O)[C@H](Cc1ccc(O)cc1)NC(=O)[C@H](CC(=O)O)NC(=O)[C@H](CO)NC(=O)[C@@H](NC(=O)[C@H](Cc1ccccc1)NC(=O)[C@@H](NC(=O)CNC(=O)[C@H](CCC(=O)O)NC(=O)CCCNC(=O)CNC(=O)Nc1cccc(OC)c1)[C@@H](C)O)[C@@H](C)O)[C@@H](C)CC)[C@@H](C)CC)C(C)C)C(=O)N[C@@H](C)C(=O)NCC(=O)NCC(=O)N1CCC[C@H]1C(=O)N[C@@H](CO)C(=O)N[C@@H](CO)C(=O)NCC(=O)N[C@@H](C)C(=O)N1CCC[C@H]1C(=O)N1CCC[C@H]1C(=O)N1CCC[C@H]1C(=O)N[C@@H](CO)C(N)=O` [Compound 261] ({NH(3-MeOPh)-CO}-G[GABA]EGTFTSDYSI[Aib]LDKIAQK([AEEA-AEEA-γGlu-C20 diacid])AFVQWLIAGGPSSGAPPPS-NH2; C-terminus assumed) has an EC50 ([1]; CHO cells stably expressing human GLP-1 receptor, cAMP accumulation, 30 min; read-out: EC50 GLP-1R) of 1 to 10 nM, an EC50 ([2]; β-arrestin-2 recruitment, PathHunter CHO-K1 GLP1R β-Arrestin Cell Line, 90 min at 37° C.; normalized to GLP-1; read-out: GLP-1R β Arrestin EC50) greater than 1000 nM and an EC50 ([3]; CHO cells stably expressing GIP receptor, cAMP accumulation, 30 min; read-out: EC50 GIP-1R) of 1 to 10 nM. The EC50 ([4]; β-arrestin-2 recruitment, PathHunter CHO-K1 GIPR β-Arrestin Cell Line, 90 min at 37° C.; normalized to GIP; read-out: GIPR β Arrestin EC50) was greater than 1000 nM.
